PubChem BioAssay AID624296 (National Center for Advancing Translational Sciences (NCATS), 2012)
Screen size: about 350,000 compounds; about 9,900 (2.8%) were called active. Inconclusive means that the source gave no clear call. Such entries were picked first, then a sample of the others. Calls come from the whole dose curve; as a rule, active = well fitted activation curve with a large enough effect; inconclusive = small, poorly fitted or top-dose-only effect; inactive = no such curve, though single readings can be large or run the other way. Potencies of inconclusive entries are left out as doubtful fits.

Assay: A quantitative high throughput screen for small molecules that induce DNA re-replication in MCF 10a normal breast cells. Note: nearly all actives have a fitted effect of over 50% in size.
Settings: MCF 10A DNA re-replication, Hoechst nuclear intensity, 48 h; series mostly up to 46.1 µM
Potency is the fitted concentration of half-maximal effect; tags give direction and shape of the fitted curve.

| SMILES | Potency |
| --- | --- |
| COc1ccccc1/C=c1\sc2nc(-c3ccco3)nn2c1=O | inconclusive [activator, single point] |
| CCOc1ccccc1N1CCN(Cc2cn[nH]c2-c2ccc(F)cc2)CC1 | inconclusive [activator, single point] |
| O=C(NCc1ccccc1)c1cccc(NC(=O)C2CCC2)c1 | inconclusive [activator, single point] |
| N#Cc1nc(-c2ccccc2Cl)oc1N1CCCCC1 | inconclusive [activator, partial curve, poor fit] |
| O=C(CCCN1C(=O)/C(=C\c2cccs2)SC1=S)Nc1ccc(C(=O)O)cc1 | inactive |
| NC(=O)C1CCN(C(=S)c2ccc(-c3ccc(Br)cc3)o2)CC1 | inactive |
| COc1ccc(NC(=O)Cn2nnc(C(=O)Nc3ccc(F)c(Cl)c3)c2N)cc1OC | inconclusive [activator, single point] |
| COc1cc(C#Cc2c(-c3ccccc3OC)oc3ccccc23)cc(OC)c1 | inconclusive [activator, single point] |
| COc1cc(/C=C/C(=O)c2ccc(NS(=O)(=O)c3ccc(C)cc3)cc2)ccc1OC(F)F | active: 23.1 µM |
| C1=CC2CC1CC2CN1CCN(c2ccccc2)CC1 (configuration not stated) | inconclusive [activator, partial curve, poor fit] |
| O=C(Cc1cccc2ccccc12)Nc1cc(Cl)ccc1C(=O)O | inconclusive [activator, single point] |
| COc1ccc(CSc2nc(CSC)cc(N3CCOCC3)n2)cc1 | inconclusive [activator, partial curve, poor fit] |
| CN(CC(=O)Nc1c(Cl)cccc1Cl)C(=O)C1CCN(C(=O)Nc2ccccc2)CC1 | inactive |
| O=C(CCN1C(=O)C2C3C=CC(C3)C2C1=O)N1CCN(c2cccc(Cl)c2)CC1 (configuration not stated) | inconclusive [activator, full curve, poor fit] |
| CCOC(=O)c1cccc(N/C=C/C(=O)c2ccc(OC)c(OC)c2)c1 | inconclusive [activator, single point] |
| Cc1ccc(C(=O)N2CC(C)CC(C)C2)cc1NC1=NC2CS(=O)(=O)CC2S1 (configuration not stated) | inactive |
| COc1cccc(NC(=O)Nc2ccc(Br)cn2)c1 | inconclusive [activator, partial curve] |
| O=C(c1cc(-c2cccc3ccccc23)nc2ccccc12)N1CCN(CCO)CC1 | inconclusive [activator, partial curve, poor fit] |
| COc1cc(C2C3=C(CCCC3=O)Nc3[nH]n(-c4ccccc4)c(=O)c32)ccc1O (configuration not stated) | inconclusive [activator, single point] |
| CCCOC(=O)C1=C(C)N(C)C(=O)NC1c1cc2c(cc1Br)OCO2 (configuration not stated) | inconclusive [activator, single point] |
| N#C/C(=C/c1ccc(N2CCCCC2)o1)C(=O)NCCc1c[nH]c2ccccc12 | inconclusive [activator, single point] |
| Cc1ccc(S(=O)(=O)N2CCN(c3ncnc4scc(-c5ccc(F)cc5)c34)CC2)cc1 | inconclusive [activator, full curve, poor fit] |
| Nc1c(-c2ccccc2)n[nH]c1-c1ccccc1 | inconclusive [activator, partial curve, poor fit] |

| SMILES | Potency |
| --- | --- |
| CCS(=O)(=O)N1Cc2ccccc2CC1C(=O)Nc1nnc(SCc2ccc(C#N)cc2)s1 (configuration not stated) | inconclusive [activator, partial curve, poor fit] |
| Cc1c(N2C(=O)CSC2c2ccco2)c(=O)n(-c2ccccc2)n1C (configuration not stated) | inactive |
| O=C(NC1CCCC1)c1cc(-c2cccc(Cl)c2)on1 | inactive |
| CCOC(=O)c1cc2c(=O)n3ccccc3nc2n(Cc2ccco2)c1=NC(=O)c1cccnc1 | inconclusive [activator, full curve, poor fit] |
| COc1cccc(C=NNc2nnc(NN=Cc3cccc(OC)c3OC)c3ccccc23)c1OC | inconclusive [activator, single point] |
| Fc1ccccc1NC(=S)N/N=C/c1ccccc1Br | inconclusive [activator, partial curve] |
| O=C(CNC(=O)C1CCCCC1)NC1CCCCC1 | inactive |
| O=C(CSc1nnc(COc2ccc(Cl)cc2)n1Cc1ccco1)c1ccccc1F | inconclusive [activator, single point] |
| CCOc1ccc(CC(=O)Nc2ccc(-c3ccc4nnc(C)n4n3)cc2)cc1 | inconclusive [activator, single point] |
| COc1cccc(/C=C2\SC(=S)N(CC(=O)N(C)C3CCS(=O)(=O)C3)C2=O)c1 (configuration not stated) | inconclusive [activator, single point] |
| COc1ccc([C@H]2CC(=O)C=C(c3cccc(Br)c3)C2)cc1 | inconclusive [activator, single point] |
| CCOc1ccc(C(=O)COC(=O)Cc2n[nH]c(=O)c3ccccc23)cc1 | active: 1.64 µM |
| Cn1c(=O)c2c(nc(OC3CCCCCC3)n2C)n(C)c1=O | inactive |
| CNc1nc(SCc2ccc(C)cc2)nc2c1CCCC2 | active: 14.6 µM |
| COC(=O)c1cc(NS(=O)(=O)c2ccc(OC)c(OC)c2)ccc1Cl | inactive |
| CC(C)NC(=O)Nc1ccc2c(c1)C(=O)N([C@H](C)CO)C[C@H](C)[C@@H](CN(C)C(=O)Nc1ccc3c(c1)OCO3)O2 | inconclusive [activator, single point] |
| Cc1nn(Cc2cccc(C(=O)N3N=C(C(F)F)CC3(O)C(F)F)c2)c(C)c1[N+](=O)[O-] (configuration not stated) | inconclusive [activator, single point] |
| COc1ncccc1C(=O)N1CCCC(N2CCN(c3cccc(Cl)c3)CC2)C1 (configuration not stated) | inactive |
| COCc1[nH][nH]c(=O)c1C=Nc1ccc(Oc2ccccc2)cc1 | inconclusive [activator, partial curve, poor fit] |
| O=C(NCCCN1CCOCC1)c1ccc(S(=O)(=O)Nc2ccccc2)cc1 | inconclusive [activator, single point] |
| O=C(Nc1cccc(-c2cnc3ccccc3n2)c1)c1cccc(NC(=O)c2ccco2)c1 | active: 14.6 µM |
| Cc1ccc(CNC(=O)c2ccc(N3CCC4(CC3)CC(c3cccc(Br)c3)=NO4)c(N)c2)cc1 | inconclusive [activator, single point] |
| CC(C)(C)c1nc2cc(Cl)c([N+](=O)[O-])cc2o1 | inconclusive [activator, single point] |

| SMILES | Potency |
| --- | --- |
| O=C(NCCc1ccccc1)c1ccc(NC(=O)C2CCCC2)cc1 | inconclusive [activator, full curve, poor fit] |
| Cc1[nH]n(-c2ccccc2)c(=O)c1C(C[N+](=O)[O-])c1ccc(F)cc1 (configuration not stated) | inconclusive [activator, single point] |
| Cc1c(C(=O)c2ccc(Cl)c([N+](=O)[O-])c2)c2ccccn2c1CCC#N | inactive |
| CCN(CC(=O)Nc1ccccc1OC)CC(=O)Nc1ccccc1-c1ccccc1 | active: 14.6 µM |
| CCOC(=O)C1CCN(Cc2cc(Cl)c3ccccc3c2O)CC1 | active: 18.4 µM |
| CC(C)OC(=O)c1cc(-c2ccc(C=O)o2)ccc1Cl | inconclusive [activator, partial curve, poor fit] |
| O=C(Cc1cccs1)NCc1cccs1 | inactive |
| COc1ccc(S(=O)(=O)Nc2ccc3c(c2)OCCO3)cc1OC | inconclusive [activator, partial curve, poor fit] |
| C[C@H]1[C@H](C)CC[C@]2(C)CC[C@]3(C)C(=CC(=O)C4[C@@]5(C)CC[C@H](O)C(C)(C)C5CC[C@]43C)[C@H]12 (some centres not stated) | inconclusive [activator, full curve, poor fit] |
| O=S1(=O)CCOC[C@H](c2ccccc2)N1Cc1cccc(Cl)c1 | inconclusive [activator, full curve, poor fit] |
| Cc1ccc(C)c(Sc2ccc(NC(=O)CCN3C(=O)NC4(CCCC4)C3=O)cc2)c1 | active: 23.1 µM |
| O=C(c1cc2ccccc2oc1=O)N1CCN(C(=O)C2CCCO2)CC1 (configuration not stated) | inconclusive [activator, single point] |
| C/C(=N\Nc1nnc2c3ccccc3n(C)c2n1)c1ccc(C)o1 | inactive |
| CCCCN(CCCC)S(=O)(=O)c1ccc(NC(=O)c2cccs2)cc1 | inconclusive [activator, partial curve, poor fit] |
| COc1ccc(NC(=O)COc2ccccc2)cc1Cl | inactive |
| Cc1ccc(NC(=O)CCS(=O)(=O)c2ccccc2)cc1S(=O)(=O)N1CCCCCC1 | inconclusive [activator, single point] |
| Fc1cccc(NC(=S)NNc2c3ccccc3nc3ccccc23)c1 | inactive |
| COc1ccc(NC(=O)N2c3ccccc3C(C)=CC2(C)C)cc1 | inactive |
| COc1ccc(N2CCN(C(=O)COC(=O)c3ccccc3OCc3ccc(F)cc3)CC2)cc1 | inconclusive [activator, partial curve, poor fit] |
| Cc1cc(Oc2ccc(C#N)cc2)nc(NCc2ccccc2)n1 | inconclusive [activator, full curve, poor fit] |
| CC1=C(C(=O)N(C)C)C(c2cccc(Cl)c2)NC(=O)N1 (configuration not stated) | inconclusive [activator, partial curve, poor fit] |
